Reference: a compilation of properties of binary mixtures (doi:10.1007/s10953-016-0465-y)
The densities may have been worked out from excess volumes.

Test: xn = mol fraction of the nth substance listed
Details: 101 kPa

COCCO + CCOS(=O)(=O)[O-].CC[n+]1ccn(C)c1
x2 = 0
Details	mass density [kg/m3]
298.15 K	960.7
308.15 K	951.7
318.15 K	941.9
328.15 K	932.6

CCOS(=O)(=O)[O-].CC[n+]1ccn(C)c1 + COCCO
mass density [kg/m3]
Details	298.15 K	308.15 K	318.15 K	328.15 K
x1 = 0.049	994.3	–	976.5	967.6
x1 = 0.0819	1013.9	–	996.6	988
x1 = 0.1453	1047	1038.7	1030.5	–
x1 = 0.1765	1061	1052.8	1044.9	1036.8
x1 = 0.2557	1092.4	–	1076.9	1069.1
x1 = 0.3386	–	1112	1104.4	–
x1 = 0.4472	–	1141	1133.5	1126.2
x1 = 0.5453	1169.5	1162.3	1155.1	1147.9
x1 = 0.6466	1188.2	–	1174	1167
x1 = 0.7562	1205.6	–	1191.7	1184.8
x1 = 0.8206	1214.7	1207.7	1201	1194.2
x1 = 0.8868	–	1216.5	–	–
x1 = 0.951	1231.2	1224.3	1217.6	1210.9
x1 = 1	1236.4	1229.5	–	1216.2
